# Measurements published in the RNAGym collection of RNA variant scans (doi:10.1101/gad.245936.114).
# Variants at the background level are over-represented here.
# B1: tRNA (parent)
# chain: CUCUCGGUAGCCAAGUUGGUUUAAGGCGCAAGACUUUAAUUUAUCACUACGAAAUCUUGAGAUCGGGCGUUCGACUCGCCCCCGGGAGAUUUUUUCCUCGAGCAA
# Variants of: B1
# Experiment: nonsense suppression (GFP-seq) (ratio to wild type); higher = more function; SUP4oc tRNA, yeast GFP reporter sort-seq
# How it was run: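 Raffinose/galactose medium with 80 mg/L adenine was used to grow yeast carrying genome-integrated tRNA variants (~3% random-mutation library), RFP, and a galactose-driven GFP ochre reporter. Cells went into GFP/RFP bins, which were Illumina-sequenced, and variants with ≥100 reads and ≥30 cells were scored. Nonsense suppression (GFPSEQ) is the per-bin median GFP/RFP weighted by estimated cell share and expressed relative to the unmutated parent tRNA.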
row,Variant,nonsense suppression
1,CACUCGGUAGCCAAGUUGGUUUAAGGCGCAAGACUUUAAUUUAUCACUACGAAAUCUUGAGAUCGGGCGUUCGACUCGACCCCGGGAGAUUUUUUCCUCGAGCAA [U2A C79A],≤ 0.026
2,CACUCGGUAGCCAAGUUGGUUUAAGGCCCAAGACUUUAAUUUAUCACUACGAAAUCUUGAGAUCGCGCGUUCGACUCGCCCCCGGGAGAUUUUUUCCUCGAGCAA [U2A G28C G66C],≤ 0.026
3,CACUCGGUAGCCAAGUUGGUUUAAGGCGCAAGACUUUAAUUUAUCACUACGAAAUCUUGAGAUCGGGCGUUCGACUCGCCUCCGGGAGAUUUUUUCCUCGAGCAA [U2A C81U],0.0376
4,CACUCGGUAGCCAAGUUGGUUUAAGGCGCAAAACUUUAAUUUAUCACUACGAAAUCUUGAGAUCGGGCGUUCGACUCGCCCCCGGGAGAUUUUUUCCUCGAGCAA [U2A G32A],≤ 0.026
5,CACUCGGUAGCCAAGUUGGUUUAAGGCGCAAGACUUUAAUUUAUCACUACGAAAUCUUGAGAUCGGGCUUUCGACUCGCCCCCGGGAGAUUUUUUCCUCGAGCAA [U2A G69U],≤ 0.026
6,CACUCGGUAGCCAAGUUGGUUUAAGGCGCAAUACGUUAAUUUAUCACUACGAAAUCUUGAGAUCGGGCGUUCGACUCGCCCCCGGGAGAUUUUUUCCUCGAGCAA [U2A G32U U35G],≤ 0.026
7,CACUCGGUAGCCAAGUUGGUUUAAGGCGUAAGACUUUAAUUUAUCACUACGAAAUCUUGAGAUCGGGCGUUCGAGUCGCCCCCGGGAGAUUUUUUCCUCGAGCAA [U2A C29U C75G],≤ 0.026
8,CACUCGGUAGCCAACUUGGUUUAAGGCGCAAGACUUUAAUUUAUCACUACGAAAGCUUGAGAUCGGGCGCUCGACUAGCCCCCGGGAGAUUUUUUCCUCGAGCAA [U2A G15C U55G U70C C77A],≤ 0.026
9,CACUCGGUAGCCAAGUUUGUUUAAGGCGCAAGACUUUAAUUUAUCACUACGAAAUCUUGAGAUCGGGCGUUCGACUCGCCCCCGGGAGAUUUUUUCCUCGAGCAA [U2A G18U],≤ 0.026
10,CACUCGGUAGCCAAGUUCGUUUAAGGCGCAAGACAUUAAUUUAUCACUACGAAAUCUUGAGAUCGGGCGAUCGACUCGCCCCCGUGAGAUUUUUUCCUCGAGCAA [U2A G18C U35A U70A G85U],≤ 0.026
11,CACUCGGUAGCCAAGUUGGUUUAAGGCGCAAGACUUUAAUUUAUCACUACGAAAUAUUGAGAUCGGACGUUCGACUCGCCCCCGGGAGAUUUUUUCCUCGAGCAA [U2A C56A G67A],≤ 0.026
12,CACUCGGUAGCCAAGUUGCUUUAAGGCGCAAGACUUUAAUUUAUCACUACGAAAUCUUGAGAUCGGGCGUUCGACUCGCCCCCGGGAGAUUUUUUCCUCGAGCAA [U2A G19C],≤ 0.026
13,CACUCGGAAUCCAAGUUGGUUUAAGGCGGAAGACUUUAAUUUAUCACUACGAAAUCUUGAGACCGGGCGUUCGACUCGCCCCCGGGAGAUUUUUUCCUCGAGCAA [U2A U8A G10U C29G U63C],≤ 0.026
14,CACUCGGUAGCCAAGUUGGUUUAAGGCGCAAGACUUUAAUUUAUCACUACGAAAUCUUGAGAUCGCGCGUUCGACUCGCCCCCGGGAGAUUUUUUCCUCGAGCAA [U2A G66C],≤ 0.026
15,CACUCGGUAGCCAAGUUGGUUUAAGGCGCAAGACUUUAAUUUAUCACUACGAAAUCUUGAGAUCCGGCGUUCGACUCGCCCCCGGGAGAUUUUUUCCUCGAGCAA [U2A G65C],≤ 0.026
16,CACUCGGUAGCCAAGUUGGUUUAAGGCGCAAGAUUUUAAUUUAUCACUACGAAAUCUUGAGAUCGGGCGUUCGACUCGCCCCCGGGAGAUUUUUUCCUCGAGCAA [U2A C34U],≤ 0.026
17,CACUCGGUAGCCAAGUUGGUUUAAGGCGCAAGAAUUUAAUUUAUCACUACGAAAUCUUGAGAUCGGGCGUUCGACUCGCCCCCGGGAGAUUUUUUCCUCGAGCAA [U2A C34A],≤ 0.026
18,CACUCGGUAGCCAAGUUGGUUUAAGGCGCAAGACUUUAAUUUAUCACUACGAAAUCUUGAGAUCGGGCGUUCCACUCGCCCCCGGGAGAUUUUUUCCUCGAGCAA [U2A G73C],≤ 0.026
19,CACUCGGUAGCCAAGUUGGUUUAAUGCGCAGGGCUUUAAUUUAUCACUACGAAAUCUUGAGAUCGGGUGUUCGACUCGCCCCCGGGAGAUUUUUUCCUCGAGCAA [U2A G25U A31G A33G C68U],≤ 0.026
20,CACUCGGUAGCCAAGUUGGUUUAAGGCGCAAGACUUUAAUUUAUCACUACGAAAUCUUGAGAUCGGGCGUUCGACUGGCCCCCGGGAGAUUUUUUCCUCGAGCAA [U2A C77G],≤ 0.026
21,CACGCGGUAGCCAAGUUGGUUUAAGGCGCAAGACUUUAAUUUAUCACUACGAAAUCUUGAGAUCGGGCGUUCGACUCGCCCCCGGGAGAUUUUUUCCUCGAGCAA [U2A U4G],0.203
22,CACUCGGUAGCCAAGUUGCUUUAAGGCGCAAGACUUUAAUUUAUCACUACGAAAUCUUGAGAUCGGGCGUUCGACUCGCCCCCGUGAGAUUUUUUCCUCGAGCAA [U2A G19C G85U],≤ 0.026
23,CACUCGGUAGCCAAGUUGGUUUAAGCCGCAAUACUUUAAUUUAUCACUACGAAAUCUUGAGAUCGGGCGUUCCACUCGCCCCCGGGAGAUUUUUUCCUCGAGCAA [U2A G26C G32U G73C],≤ 0.026
24,CACUCGGUAGCCAAGUUUGUUUAAGGCGCAAGACUUUAAUUUAUCACUACGAAAUCUUGAGAUCGGCCGUUCGACUCGCCCCCGGGAGAUUUUUUCCUCGAGCAA [U2A G18U G67C],≤ 0.026
25,CACUCAGUAGCCAAGUUGGUUUAAGGCGCAAGACUUUAAUUUAUCACUACGAAAUCUUGAGAUCGGGCGUUCGACUCGCCCCCGGGAGAUUUUUUCCUCGAGCAA [U2A G6A],≤ 0.026
26,CACUCGGUAGCCAAGUUGGUUUAAGGCGCAAGAAUUUAAUUUAUCACUACGAAAUCUUGAGAUCGGGCGUUCGACUCGCCCCCGGGAUAUUUUUUCCUCGAGCAA [U2A C34A G88U],≤ 0.026
27,CACUCGGUAGCCAAGUUGGUUUAAUGCGCCAGACUUUAAUUUAUCACUACGAAAUCUUGAGAUCGGGCGCUCGACUCGCCCCCGGGAGAUUUUUUCCUCGAGCAA [U2A G25U A30C U70C],≤ 0.026
